In the RNAGym collection of RNA variant scans (doi:10.1093/nar/gkz1192) one finds self-cleavage data, which are given here for 34 variants.

The source gives no read counts; variants with many changes may rest on few reads.

Sequences and labels used below:
B1: CPEB3 Ribozyme (parent)
chain: UAACAGGGGGCCACAGCAGAAGCGUUCACGUCGCAGCCCCUGUCAGAUUCUGGUGAAUCUGCGAAUUCUGCUGUAUAUCUC

This data set covers variants of B1. The experiment in a line: self-cleavage, relative activity (ratio to wild type); higher = more cleavage; in vitro, sequencing. The method in brief: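 Relative activity was defined as the cleaved/total read fraction for a variant divided by the same fraction for the unmutated ribozyme. CPEB3 self-cleaving ribozyme libraries were made by rounds of error-prone PCR, barcoded, and transcribed in vitro with T7 RNA polymerase for 5 hours at 37°C, and cleavage ran through transcription plus a 15 min DNase I step before EDTA. Illumina sequencing of template-switched reverse transcripts gave the reads, and DNA sequencing mapped the barcodes. Averages come from three batches, using variants with at least 5 reads.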
Take UAACAGGGGGCCGCAGCAGAAGCGUCCACGUCGCAGCCCCUGUCAGAUUCUGGUGAAUCUGCGAAUUCUGCUGUGUAUCUC: the self-cleavage was found to be 0.36.
The figure for UAACAGGGGGCCGCAGCAGAAGCGUACACGUCGCAGCCCCUGUCAGAUUCAGGUGAACCUGCGAAUUCUGCCGUAUAUCUC is 0.15.
Then UAACAGGGGGCCGCAGCAGAAGCGUCCACGUCGAAGCCCCUGUCAGAUUCCGGUGAAUCUGCGAAUUCUGCUGUAUAUCUC, with 0.07; and UAACAGGGGGCCGCAGCAGAAGCGUACACGUCGCAGCCCCUGUCAGAUUCUGGUGAAUCUGCGAAUUCUGCUGUACAUCUC, with 0.61.
Then UAACAGGGGGCCGCAGCAGAAGCGCUCACGUCGCAGCCCCCGUCUGAUUCUGGUGAAUCUGCGAAUUCUGCUGUAUAUCUC, with 0.36; and UAACAGGGGGCCGCAGCAGAAGCGUCCACGUCGCAGCCCCUGUCAGAUCCUGGUGCAUCUGCGAAUUCUGCUGUAUAUCUC, with 0.05.
In the case of UAACAGGGGGCCGCAGCAGAAGCGUCCGCGUCGCAGCCCCUGUCAGAUUCUGGAGAAUCUGCGAAUUCUGCUGUAUAGCUC, the self-cleavage is 0.05.
The figure for UAACAGGGGGCCGCAGCAGAAGCGUACACGUCGCAGCCCCUGCCAGAUUCUGCUGAAUCUGCGCAUUCCGCUGUAUAUCUC is 0.21; for UAACAGGGGGCCGCAGCAGAAGCGCUCACGUAGCAGCCCCUGUCAGAUACUGGUGGAUCUGCGAAUUCUGCUGUAUAUCUC it is 0.09; for UAACAGGGGGCCGCAGCAGAAGCGUACACGUCGCAGCCCCUGCUAGAUUCUGGUGAAUCAGCGAGUUCAGCUGUAUAUCUC it is 0.07.
The figure for UAACAGGGGGCCGCAGCAGAAGCGCUCACGUCGCAGCCCCUGUCGGAUUCUGGUGAAUCUGCGAAUUCUGCUGUAUAUCUC is 0.31.
In the case of UAACAGGGGGCCGCAGCAGAAGCGCUCACGUCGCGGCCCCUGCCAGAUUUUGGUGAAUCUGCGAACUCUGCUGUAUAUCUC, the self-cleavage was found to be 0.
The figure for UAACAGGGGGCCGCAGCAGAAGCGCUCACGUCGCAGCCCCUGUCAGAUUCUGGUGAAUCUGCGAAUUCUGCAGUAUAUCUC is 0.04; for UAACAGGGGGCCGCAGCAGAAGCGUCCACGUCUCAGCCCCUGUCAGAUUCUGGUGAAUCUGCGGAUUCUGCUGUAUAUCUC it is 0.14.
Then UAACAGGGGGCCGCAGCAGAAGCGCUCACGUCGCAGCCCCCGUCAGAUUCUGGUGUAUCUGCGAAUUCUGCUGUAUAUCUC, with 0.06; and UAACAGGGGGCCGCAGCAGAAGCGGUCACGUCGCAGCCCCUGUCAGAUUCUGGUGAAUCUGCGAGUUCUGCUGUAUACCUC, with 0.08.
Then UAACAGGGGGCCGCAGCAGAAGCGUACACGUCGCAGCCCCUGCCAGAUUCUGGUGAAUCUGCGAAUUCUGCUUUAUAUCUC, with 0.56; and UAACAGGGGGCCGCAGCAGAAGCGCUCACGUCGCAGCCCCUGUCAGUUUCUGGUGAAUCCGCGAAUUCUGCUGUAUAUCUC, with 0.4; and UAACAGGGGGCCGCAGCAGAAGCGCUCACGUCGUAGCCCCUGCCAGAUUCUGGUGAAUCUGCGUAUUCUGCUGUAAAUCUC, with 0.08.
Consider UAACAGGGGGCCGCAGCAGAAGCGUCCACGACGCAGCCCCUGUCAGAUUCUGGUGAAUCUGCGAAUUCUGCUGUAUAUCUU, for which the self-cleavage was 0.12.
Turning to UAACAGGGGGCCGCAGCAGAAGCGUACACGUCGCAGCCCCUGUCAGAUUCUGGUGAACCUGCGAAUUCUGCUGUAUAUCUC, the self-cleavage was 0.24.
Turning to UAACAGGGGGCCGCAGCAGAAGCGCUCACGUCGCAGCCCCUGUCAGAUUCUGGUGUAUCAGCGAAUUCUGCUGUAUACCUC, the self-cleavage was determined as 0.13.
Then UAACAGGGGGCCGCAGCAGAAGCGCUCACGUCGCAGCCCCUGUCAGAUUCUGGUGAAUCUGCGAAUUCUGCUGUUUAUCUC, with 0.4.
Then UAACAGGGGGCCGCAGCAGAAGCGCUCACGUCGCAACCCCAGUCAGAUUCUGGUGAAUCUGCGAAUUCUGCUGUAUAUCUC, with 0.21; and UAACAGGGGGCCGCAGCAGAAGCGCUCACGUCGCAGCCCCUGUCAGAUUCUGGUGAAUCUGCGAAUUCUGCUGUAUAUCAC, with 0.1; and UAACAGGGGGCCGCAGCAGAAGCGCUCACGUCGCAGCCCCUGUCAGGUUCUGGUGAAUCUGCGAAUUCAGCUGUAUAUCUC, with 0.34.
The figure for UAACAGGGGGCCGCAGCAGAAGCGCUCACGUCGCAGCCCCUGUCAGAUUCUGGUGAAUCUGCGAAUCCUGCUGUAUAUCUC is 0.36; for UAACAGGGGGCCGCAGCAGAAGCGUCCACGUCGCUGCCCCUGUCAGAUUCUGGAGAAUCUGCGAAAUCUGCUGUAUAUCUC it is 0.06; for UAACAGGGGGCCGCAGCAGAAGCGCUCACGUCGCAGCCCCUGUCAGAUUCGGGUGGAUCUGCGAAUUCUGCUGUAUAUCUC it is 0.17.
Consider UAACAGGGGGCCGCAGCAGAAGCGUCCACGUCGCAGCCCCUGUCAGAUUCUGGUGAGUCUGCGAAUCCUGCUGUAUAUCUC, for which the self-cleavage stood at 0.07.
Then UAACAGGGGGCCGCAGCAGAAGCGCUCACGUUGCAGCCCCUGUCAGACUCUGGUGAAUCUGCGAAUUCUGCCGUAUAUCUC, with 0.39.
The figure for UAACAGGGGGCCGCAGCAGAAGCGUCCACGUCGCAGCCCCUGUCAGAUUCUGGUGAAUCUGUGAAUUCUGCCGUAUAUCUC is 0.09; for UAACAGGGGGCCGCAGCAGAAGCGUCCGCGUCGCAGCCCCUGUCAGAUUCCGGUGAAUCUGCGAAUUCUGCUGUAUAUCUC it is 0.31.
The figure for UAACAGGGGGCCGCAGCAGAAGCGUACACGUCGCAGCCCCUGUCAGAUUCUGGCGAAUCUCCGGAUUCUGCUGUAUAUCCC is 0.12.
